# Data taken from the supplement of paper PMC4604168 (melanoma cell lines).
# The other results are listed elsewhere or left out. Most values come without repeats; read them as rough.
# Key:
# Experiment in all cases: cell count relative to DMSO control; melanoma cells; higher = more viable cells
# Settings in all cases: library dose: standard library concentration; 72 h
# G361 = system: G361
# IPC-298 = system: IPC-298
# IST-MEL1 = system: IST-MEL1
# LB2518-MEL = system: LB2518-MEL
# LOXIMVI = system: LOXIMVI
# MEL-HO = system: MEL-HO
# MZ2-MEL = system: MZ2-MEL
# MeWo = system: MeWo
# RPMI7951 = system: RPMI7951
# RVH-421 = system: RVH-421
# SkMel28 = system: SkMel28
# SkMel2 = system: SkMel2
# SkMel30 = system: SkMel30
# SkMel5 = system: SkMel5
# UACC257 = system: UACC257
# UACC62 = system: UACC62
# WM115 = system: WM115
# WM1716 = system: WM1716
# WM1745 = system: WM1745
# WM3526 = system: WM3526
# 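Note: cells treated in 1,536-well plates, then fixed and DAPI-stained, with nuclei counted from automated high-throughput microscope images.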
Compound,cell count (G361),cell count (IPC-298),cell count (IST-MEL1),cell count (LB2518-MEL),cell count (LOXIMVI),cell count (MEL-HO),cell count (MZ2-MEL),cell count (MeWo),cell count (RPMI7951),cell count (RVH-421),cell count (SkMel28),cell count (SkMel2),cell count (SkMel30),cell count (SkMel5),cell count (UACC257),cell count (UACC62),cell count (WM115),cell count (WM1716),cell count (WM1745),cell count (WM3526)
"CC(=O)O[C@@]12CO[C@@H]1C[C@H](O)[C@@]1(C)C(=O)[C@H](O)C3=C(C)[C@@H](OC(=O)[C@H](O)[C@@H](NC(=O)OC(C)(C)C)c4ccccc4)C[C@@](O)([C@@H](OC(=O)c4ccccc4)[C@H]21)C3(C)C [Docetaxel] + Nc1nc(F)nc2c1ncn2[C@@H]1O[C@H](CO)[C@@H](O)[C@@H]1O [fludarabine] (first compound 0.0005 µM, partner dose 1 µM)",13%,32.4%,35.4%,51%,48.8%,41.9%,38.7%,27.6%,19.5%,50.2%,1.59%,2%,8.01%,23.6%,28.8%,24.9%,44.9%,32.4%,36.5%,17.1%
"Nc1ncn([C@H]2C[C@H](O)[C@@H](CO)O2)c(=O)n1 [decitabine] + C#Cc1cccc(Nc2ncnc3cc(OCCOC)c(OCCOC)cc23)c1 [erlotinib] (first compound 0.5 µM, partner dose 4 µM)",69.7%,39.9%,75.7%,54.2%,89.6%,70.1%,73.1%,60.1%,69.2%,62.5%,56.3%,81.1%,61.1%,55.6%,83.6%,56.7%,61.4%,65.9%,59.6%,57.3%
"CO[C@H]1C[C@@H]2CC[C@@H](C)[C@@](O)(O2)C(=O)C(=O)N2CCCC[C@H]2C(=O)O[C@H]([C@H](C)C[C@@H]2CC[C@@H](OCCO)[C@H](OC)C2)CC(=O)[C@H](C)/C=C(\C)[C@@H](O)[C@@H](OC)C(=O)[C@H](C)C[C@H](C)/C=C/C=C/C=C/1C [everolimus] + CC(C)(C)c1cnc(CSc2cnc(NC(=O)C3CCNCC3)s2)o1 [SNS-032] (first compound 0.1 µM, partner dose 0.05 µM)",62.5%,87.1%,75.9%,50.8%,55.4%,61.3%,74.8%,70.7%,30.1%,75.5%,46.1%,59%,71.2%,38.9%,84.6%,54.3%,60.2%,70.3%,56.7%,69.3%
"Nc1ccn([C@@H]2O[C@H](CO)[C@@H](O)C2(F)F)c(=O)n1 [gemcitabine] + COc1cc2c(Oc3ccc4[nH]c(C)cc4c3F)ncnc2cc1OCCCN1CCCC1 [cediranib] (first compound 0.002 µM, partner dose 2 µM)",43%,45.1%,40.2%,66.3%,54.3%,60.1%,95.1%,37.7%,63%,54.9%,90.8%,91.8%,96.6%,68.1%,80.9%,80%,64.3%,57.2%,52%,82%
"Nc1ncn([C@H]2C[C@H](O)[C@@H](CO)O2)c(=O)n1 [decitabine] + C[C@]1(c2nc3c(C(N)=O)cccc3[nH]2)CCCN1 [Veliparib] (first compound 0.5 µM, partner dose 7 µM)",65.3%,55.7%,66.7%,72.8%,78.5%,81%,73.3%,65.6%,89.4%,86.5%,66.8%,82.9%,65.9%,60.3%,84.9%,56.9%,65.2%,74.8%,120%,69.9%
"Nc1ccn([C@@H]2O[C@H](CO)[C@@H](O)C2(F)F)c(=O)n1 [gemcitabine] + COc1ccc(Cl)c(Nc2nc3ccccc3nc2NS(=O)(=O)c2cccc(NC(=O)C(C)(C)N)c2)c1 [XL147] (first compound 0.002 µM, partner dose 4 µM)",60.5%,43.1%,47.9%,64.3%,128%,57.4%,73.2%,38.9%,73.4%,53.8%,107%,120%,120%,89.8%,101%,96.7%,75.5%,74.4%,61%,107%
"CC(=O)O[C@@]12CO[C@@H]1C[C@H](O)[C@@]1(C)C(=O)[C@H](O)C3=C(C)[C@@H](OC(=O)[C@H](O)[C@@H](NC(=O)OC(C)(C)C)c4ccccc4)C[C@@](O)([C@@H](OC(=O)c4ccccc4)[C@H]21)C3(C)C [Docetaxel] + C[C@]1(c2nc3c(C(N)=O)cccc3[nH]2)CCCN1 [Veliparib] (first compound 0.0005 µM, partner dose 7 µM)",10.5%,38.4%,41.1%,40%,53.3%,34.5%,33.4%,19.4%,28.8%,29.2%,19.4%,11.9%,42.8%,32.6%,51.3%,50.6%,30.9%,33.5%,42.2%,29.8%
"CO[C@H]1C[C@@H]2CC[C@@H](C)[C@@](O)(O2)C(=O)C(=O)N2CCCC[C@H]2C(=O)O[C@H]([C@H](C)C[C@@H]2CC[C@@H](OCCO)[C@H](OC)C2)CC(=O)[C@H](C)/C=C(\C)[C@@H](O)[C@@H](OC)C(=O)[C@H](C)C[C@H](C)/C=C/C=C/C=C/1C [everolimus] + CNC(=O)c1cc(Oc2ccc(NC(=O)Nc3ccc(Cl)c(C(F)(F)F)c3)cc2)ccn1 [sorafenib] (first compound 0.1 µM, partner dose 2 µM)",78%,74.9%,81.5%,71.7%,116%,82.8%,99.7%,68.5%,107%,102%,70.3%,75.8%,67.3%,67.9%,101%,68%,66.9%,85.3%,87%,91.5%
